# Source: the RNAGym collection of RNA variant scans (doi:10.7554/elife.90254)
# Read counts are not given, so values of variants with three or more changes are uncertain.
# B1: LINE1-mini (parent)
# chain: GGCAGAGCUCAACACAGCGUGGCAAAGUGGCUGUGGCUAGACUGCC
# Variants of: B1
# Experiment: self-cleavage, relative activity (ratio to wild type); higher = more cleavage; in vitro, sequencing; the parent is a self-cleaving ribozyme
row,Variant,self-cleavage
1,C10A C15U G17C G21U C23G G36A,0.03
2,G1C U9A C37U,0.04
3,A6G C31G G35C,0.04
4,G17A G19C C45A,0.24
5,A4U C8A U28C G29A G35A,0.01
6,A4C A25C G27U,0.02
7,U9A A11U A24U A26U C31G,0
8,C3A A4U G29C,0.08
9,C3U G7U U32C,0.1
10,G7U C10A G33U U34A,0.03
11,A6C U20C G27U U38A,0.04
12,A25C C31G A39C,0.31
13,G2A G7A G27C,0.98
14,A4U A12U A14G U28A G35C,0.07
15,G1A G2C U20A U32A,0.01
16,C8U C13U G29A C42A,0.3
17,A4U C8A G19U G33A,0.36
18,C10A C15A G29U C31G,0.03
19,U20A G22A C46A,0.68
20,G5C A12U C18G G19U U28A,0.01
21,G7A C10G G22U G29U G35A U43C,0.02
22,A6U U32G A39G,0.11
23,A12G A26U G29C,0.03
24,C15A U28G G29A,0.05

row,Variant,self-cleavage
1,C3G A6C U20G G30C,0.03
2,G19A C23A U28A G35A G36A,0.57
3,C10U C18A G19C U38C,0.04
4,G5U C15U C37A,0.08
5,G2C A11G A24G,0.01
6,G19U U20A G22C,0.59
7,A11G G22A G44U,0.02
8,C31A U38A A41U,0.05
9,A25U G36U C37G C42U,0.01
10,C3G G7A G22C G30A C31A U34G,0.19
11,C3A G7C U20A G22A,0.04
12,G1U G44U C46A,0.06
13,C8A U20C G40U C42A,0.01
14,G29C U34G G44U,0.05
15,U9G G21C C42A,0.09
16,G1C A4U U9A U43C C46U,0.03
17,G2A G27C U32G,0.16
18,C10A G21U A39G C42A,0.06
19,G2A G5U U38C,0.04
20,G1C G2A G29C C46A,0.13
21,G21C G29U G30U,0.39
22,G5A U9G C13G G17C G19C C23A,0.08
23,C8G U32A G40U,0.04
24,G2U G17C A24G U38C,0.01

row,Variant,self-cleavage
1,C3A G22U A25C,1.13
2,U32G U38A A41U,0.02
3,A6U U38A A39G,0.02
4,U9G G29C U38G C45G,0.05
5,A16C C23A C31U,0.05
6,A4U C15G A24C U34C,0.03
7,A26U G35U U43A,0.11
8,A6U C8G A11G A14G C18U G40C C46U,0.01
9,U20C C23G G29U,0.28
10,A4U U32A A41U,0.08
11,G1A A16C G29C,0.4
12,G33A A41C C46U,0.11
13,A6C A11G C23U C45U C46U,0.02
14,C8U C23A A41C,0.08
15,U20A U34A G44C,0.02
16,G7U G17A C31A,0.14
17,C8U U9C A16C U20A,0.01
18,G1A U9A G40A,0.08
19,A4U A6U A14U,0.09
20,C15A U34G U38A A39G A41U,0.01
21,C23U G29C G30C G44A,0.08
22,C23G C31A C42A C45U,0.04
23,G5C C13A A24C U28C,0.04
24,U20C A24G G36C G40U C42U,0.06

row,Variant,self-cleavage
1,G35C C37G C42G,0.03
2,C18U C23A C45G,1.27
3,C3U G21C G30C,1.19
4,C10A U34G G36U,0
5,U20A G29A G35C,0.04
6,C13A U20C G29U,0.06
7,G2U G7A G17A G27A U43G,0.15
8,C15U A16U G30C U32C A41U,0.03
9,U20C G35U A41U,0.04
10,G1U C10A G19C U28A,0.02
11,C13U G33A U43C,0.26
12,A6C C23A U43A,0.13
13,C3A C10U A11U A16C G22U,0.03
14,G1A A6G G17A,0.03
15,A6U C13A C18G,0.14
16,G1C C8A C42U,0.02
17,G27U G29C U38A,0.24
18,C18A G21C G22A G35U,0.09
19,G2A C31G C46G,0.12
20,U9C G17U C18G G19U,0.02
21,G1C A11C C15U C18A,0
22,A12U C15U A24U,0.03
23,A12C C13G C15U G33C,0.01
24,G17U A26G C31A U32A A41G,0.01

row,Variant,self-cleavage
1,G17U C18G A39G,0.05
2,G7U C8A G33A,0.39
3,C23A G27U C42A,0.15
4,C15A A24C U32G C46U,0.01
5,A16U C42U C45U,0.05
6,G17C G21C G27U,0.71
7,A12C G17A C18A G40C C46G,0
8,G7C G19U U32C,0.06
9,G30U G36U A39G G40C,0.03
10,A14C G22U U34C C45G C46U,0.05
11,C10A C18G A25G,0
12,C23U G30A G33U,0.35
13,G7C C8A A26U U34A C45U,0.04
14,U28G C31G A41U,0.05
15,A14U C15A C18A,0.05
16,C10A A12U C37U U38A,0.02
17,G21U A26G G33C G40U,0.02
18,G5U G17C A24C G30C C37U U43A,0.07
19,G5A U20A U32C G36C G40A,0.01
20,C3U C23A U28A U34G,0.02
21,C13U G22U G40U C42A,0.03
22,G2U G17U U20G,0.01
23,A6U G33A U38C,0.16
24,A11U U32A U43A,0.03

row,Variant,self-cleavage
1,G1U C3U G7C U32C,0.05
2,C23U A25U C45U,0.83
3,C8G C10A U20C G33U U38G A41C,0
4,C3U A6U A16G C42A,0.21
5,C8G C23A A26G C37A,0.13
6,G1A A4U C8U A11U G17C,0.14
7,U9C C15A C23U G29A,0.02
8,A6G A16C G35C,0.1
9,G7U U9A U32C G44C,0.05
10,C15A U20C G36C U38A,0.02
11,C10U G17C G21U U32C G33C A39U,0.02
12,A4C G5C A26C G29A,0.06
13,A4G G17U U28C G29A G30C,0.07
14,G21U C23G U43G,1
15,A14C U32G U34A,0.01
16,C15U C18G G21U G27U,0.2
17,G27C G29U U34C U43A,0.04
18,C3A C10A A14C U20A G44U,0.05
19,C13A G17A A24G C31G C45U,0
20,C15A C37A U38A,0.12
21,G1C A12U A14U A25U U32C G40U,0
22,G33U U38C A41C U43C G44C,0.06
23,G7A C15A U20A G44A C45A,0.02
24,G5A G17A A24G,0.02

row,Variant,self-cleavage
1,G7A A12G U34G G44A,0.06
2,C13G A16G G17A U34C C45A,0
3,G2A G21C A41G C46G,0.01
4,C3A G7U C8A C37A,0.03
5,A12C C23U G27U,0.01
6,A26G G29A A39G C42G C46U,0.04
7,G7U A14C C23U G29C C37A,0.01
8,G1A U34A A39U C45G,0.08
9,A4U C31A C42U,0.43
10,U32G G35A A39G C42G,0.05
11,C13A G19C G22A C23A A24U G27U C31G,0.01
12,U9A C15G A16U U28A C37G,0.01
13,C10A A12C G30C,0.01
14,C3G U28C G40U,0.06
15,C13A G36U G44A,0.08
16,G2C U20G G30A,0.06
17,C8G A12U A26G,0.13
18,A16C G17U G44C,0
19,U43A C45A C46A,0.03
20,C15A A16C G17C G19A G22C A26G,0.06
21,C3G C23A U34C G44U,0.23
22,A11C A14G C23G A25U G35C U43A,0.01
23,C8G A12C G30A U32C G33A G36U U38G,0
